Several values for one entry are separate records, joined by “and”; a condition that tells them apart may be missing. Equal values may be shown once. About 530 (0.16%) of roughly 340,000 compounds were called active. Inconclusive means that the source gave no clear call. Such entries were picked first, then a sample of the others. No stated cut-off is given here; in the data, active means activity change below about -80%; inconclusive means between about -30% and that limit; inactive means weaker than that.
test: Small Molecules that selectively kill Giardia lamblia: qHTS; details: Giardia lamblia trophozoite viability; at 7.66 µM; active compounds read low;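 further: parasites exposed to compound for two days anaerobically before the ATP read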
From the text: Giardia lamblia is a human pathogen afflicting impoverished nations, and the most common cause of outbreaks of diarrhea in the United States. Giardia has been classified by the CDC as a category B bioterrorism organism. The favored anti giardiasis drugs in the US are metronidazole or tinidazole, compounds that have undesirable side effects. Moreover, increasing resistance to drug regimes and recurrence are a concern. It is thus clear that alternative drug treatments are needed.
In a collaboration between the University of Maryland, College Park and the NIH Chemical Genomics Center, a bioluminescence Giardia viability assay based on the trophozoites' ATP content was developed. This assay is suitable for high throughput screening, and miniaturized the assay for compound screening in 1536-well plates. The goal of the project is to screen the Molecular Libraries Small Molecule Repository (MLSMR) for compounds that selectively kill Giardia trophozoites.
NIH Chemical Genomics Center [NCGC]
NIH Molecular Libraries Probe Centers Network [MLPCN]
Assay Submitter (PI): Osnat Herzberg, University of Maryland, College Park, MD.
1. Dispense 2 ul/well media
2. Dispense 23 nl/well compounds
3. Dispense 4 ul/well Giardia trophozoites at a concentration of 100 cells/well
4. Incubate 48 hrs at 37 deg C anaerobically
5. Dispense 4 ul/well ATPLite 1-Step Luminescence assay kit
6. Incubate 15-30 min at room temperature
7. Read luminescence signal on ViewLux plate reader
On the % scale 0 is the no-effect control and ±100 the full control effect.

Row | SMILES | activity change
1 | Cc1c(C(=O)N2CCCCCC2)c(S(=O)(=O)Nc2cccc(F)c2)c(C)n1C | inconclusive: -39.4% [inhibitor]
2 | COc1ccccc1CNC(=O)CCNC(=O)C1CCN(S(=O)(=O)c2ccccc2)CC1 | inconclusive: -36.9% [inhibitor]
3 | C[C@]12CCC(=O)C=C1CC[C@@H]1[C@@H]2[C@@H](O)C[C@]2(C=O)[C@@H](C(=O)CO)CC[C@@H]12 | inconclusive: -37.7% [inhibitor]
4 | Cc1ccccc1NC(=O)CSc1ccsc1[N+](=O)[O-] | inconclusive: -30.7% [inhibitor]
5 | Cc1ccc(O)c(C(=O)c2cnc3c(c2)CN(C)C(=O)N3)c1 | inactive: -11.9%
6 | CC(=NC1CC1)c1c(-c2ccccc2)[nH]n(-c2nc3ccccc3s2)c1=O | inactive: 0.777%
7 | O=C(Nc1ccc2c(c1)OCO2)c1ccc(NC2CC2)c([N+](=O)[O-])c1 | inactive: 2.49%
8 | COc1ccc(C(=O)/C(C#N)=N/Nc2ccc([N+](=O)[O-])cc2)cc1 | inconclusive: -37.6% [inhibitor]
9 | CCn1c(=O)c(C(=O)CN(C)Cc2ccc(F)cc2)c(N)n(Cc2ccccc2)c1=O | inactive: 1.89%
10 | Cc1cccc(NC(=O)c2ccc([N+](=O)[O-])o2)n1 | inconclusive: -60.9% [inhibitor]
11 | O=C(N/N=C/c1cccc(O)c1)c1ccc2c(c1)OCCO2 | inconclusive: -37.3% [inhibitor]
12 | COc1cccc(CNC(=O)C(=O)NCCc2ccc(OC)c(OC)c2)c1 | inconclusive: -33.9% [inhibitor]
13 | COc1ccc(-c2nc(CSCC(=O)NC3CCCC3)c(C)o2)cc1OC | inconclusive: -50.8% [inhibitor]
14 | O=C(C[C@H]1C/C=C\CC[C@H](Cc2ccc(F)cc2)C(=O)OC[C@H]2CCCN2C1=O)NCCO | inactive: 51.2%
15 | Cc1ccc(CCN=c2c([N+](=O)[O-])nn(-c3ccccc3)n2O)cc1 | inconclusive: -74.7% [inhibitor]
16 | Cc1ccc(NC(=S)N2CCOCC2)cc1 | inactive: -6.38%
17 | Cn1nnnc1Sc1ncnc2scc(-c3cccc(Br)c3)c12 | inconclusive: -40% [inhibitor]
18 | COc1ccc(NC(C)=O)cc1S(=O)(=O)NC(C)c1ccc(-n2ccnc2)cc1 (stereo unspecified) | inconclusive: -34.1% [inhibitor]
19 | Cc1ccc(C(=O)Nc2ncc3c(Cl)cccc3n2)cc1 | inconclusive: -55.8% [inhibitor]
20 | COc1ccc(NC(=O)N(C)C[C@H]2Oc3ccc(NS(=O)(=O)c4cccs4)cc3C(=O)N([C@@H](C)CO)C[C@@H]2C)cc1 | inactive: 1.73%
21 | CC(C)=C[C@@H]1C[C@H](C)[C@H]2CC[C@H](C)c3c(O[C@@H]4O[C@@H](C)[C@@H](O)[C@@H](O)[C@@H]4O)c(O)c(C)c1c32 | inconclusive: -34.2% [inhibitor]
22 | CCOC(=O)c1ccc(NC(=O)c2c(NC(=O)CCC(=O)O)sc3c2CCCCC3)cc1 | inconclusive: -33.5% [inhibitor]
23 | O=C(Nc1ccccn1)c1cc(-c2ccc(Cl)s2)nc2ccccc12 | inconclusive: -35.8% [inhibitor]
24 | Cc1cc(Cl)ccc1OCC(=O)NN1C(=O)C2C3C=CC(C3)C2C1=O (stereo unspecified) | inactive: 6.14%
25 | CCCCCCSc1cccc(-c2nc3ccc(Cl)cn3c2NCCCC)c1 | inactive: 12.4%
26 | Cn1c(=O)cc(OCC(=O)NC2CCCCC2)c2ccccc21 | inconclusive: -34.4% [inhibitor]

Row | SMILES | activity change
27 | COc1ccc(CCNc2oc(COc3ccccc3Cl)nc2C#N)cc1OC | inconclusive: -39.4% [inhibitor]
28 | Cc1cnc(NC(=O)CSc2nnc(-c3ccccc3)o2)s1 | inconclusive: -39.8% [inhibitor]
29 | Cc1cc(/C=N/O)c(C)n1-c1ccc(Br)cc1 | inconclusive: -30.5% [inhibitor]
30 | Cc1nnc(NC(=O)CSc2ccc3nnc(-c4ccccn4)n3n2)s1 | inactive: 4.01%
31 | O=C(/C=C/c1ccco1)N1CCc2ccccc21 | inconclusive: -39.3% [inhibitor]
32 | COc1ccc(S(=O)(=O)N2CCC(C(=O)OCC(=O)c3ccccc3)CC2)cc1[N+](=O)[O-] | inactive: -0.271%
33 | CN(C)S(=O)(=O)c1ccc(N2CCCC2)c(C(=O)N2CCN(S(=O)(=O)c3cccc(F)c3)CC2)c1 | inconclusive: -36.3% [inhibitor]
34 | Cc1c(CC(=O)N[C@@H](C)C(=O)O)c(=O)oc2c(C)c3occ(-c4ccccc4)c3cc12 | inconclusive: -33.6% [inhibitor]
35 | CCn1c(=O)c(C(=O)NCc2ccccn2)c(O)c2ccccc21 | inactive: -2.6%
36 | Nc1c(C(=O)NC2CCCC2)sc2nc(-c3cccs3)ccc12 | inactive: -6.57%
37 | CCN(CC)CCOC(=O)c1ccc(NC(=O)CCNC(=O)Cn2ccc3ccccc3c2=O)cc1 | inactive: -5.34%
38 | CC(=O)N1c2ccc(S(=O)(=O)NCCC(=O)N3CCC(C)CC3)cc2CC1C (stereo unspecified) | inactive: 10.2%
39 | Cc1ccc(-c2cn3cc([N+](=O)[O-])ccc3n2)cc1 | inconclusive: -53.2% [inhibitor]
40 | COc1ccc(-c2ccc(SCC(=O)NCc3ccco3)nn2)cc1 | inactive: -14.4%
41 | C(=N\Nc1nc2ccccc2s1)/c1ccccn1 | inconclusive: -65.6% [inhibitor]
42 | O=C(CSC1=NCCS1)NC(NC(=O)CSC1=NCCS1)c1ccccc1 | inactive: 4.24%
43 | O=C(O)CCN1C(=O)C2C3c4ccccc4C(c4ccccc43)[C@@H]2C1=O (stereo partly specified) | inconclusive: -39.4% [inhibitor]
44 | Cc1ccc(N2CCN(/N=C/c3cccnc3)CC2)cc1 | inactive: 7.2%
45 | NNC(=O)c1cccc(Cn2cc(Br)c([N+](=O)[O-])n2)c1 | inconclusive: -47.5% [inhibitor]
46 | COC(=O)[C@]1(Cc2ccccc2)N[C@H](CN(C)C(=O)NC(C)C)[C@@H]2C(=O)N(Cc3ccccc3)C(=O)[C@@H]21 | inconclusive: -31.2% [inhibitor]
47 | O=C(N[C@@H](Cc1ccccc1)C(=O)OCc1ccccc1)c1nc[nH]c1C(=O)NC(c1ccccc1)c1ccccc1 | inactive: 9.26%
48 | Cc1onc(NC(=O)c2ccc([N+](=O)[O-])o2)c1Br | inconclusive: -70.4% [inhibitor]
49 | CSc1nc(N)nc2c1ncn2CC(=O)N[C@H](C)c1cccc2ccccc12 | inconclusive: -34.4% [inhibitor]
50 | CN(CCc1cnn(C)c1)C(=O)CCc1nnc(CCCc2ccccc2)o1 | inconclusive: -30.2% [inhibitor]
51 | CCC(C)Sc1nnc(CSc2nc(C)cc(C)n2)n1C (stereo unspecified) | inconclusive: -33.1% [inhibitor]
52 | CS(=O)(=O)N(Cc1nc2sc3c(c2c(=O)[nH]1)CCCC3)C1CCCCC1 | inconclusive: -30.8% [inhibitor]

Row | SMILES | activity change
53 | O=C(CN1C(=O)NC2(CCCC2)C1=O)OCCOc1ccccc1 | inconclusive: -34.2% [inhibitor]
54 | O=C(c1ccc(-c2nc3ccccc3s2)s1)N1CCOCC1 | active: -83.9%
55 | COc1ccc(/C=N/Nc2nncc3ccccc23)cc1 | inconclusive: -57.8% [inhibitor]
56 | COc1ccc(COC(=O)Nc2cc3c(C(F)(F)F)nn(C)c3s2)cc1 | inactive: 7.52%
57 | COc1cccc(/C=C2\SC(=S)N(N3CCOCC3)C2=O)c1OC | inactive: 4.24%
58 | COc1ccccc1CNCC(=O)Nc1cc(S(=O)(=O)N2CCCCC2)ccc1C | inactive: -18.7%
59 | CC(C)N(Cc1cnn(C)c1)Cc1nc(-c2ccc(Cl)cc2)no1 | inconclusive: -31.3% [inhibitor]
60 | Cc1ccc(NC(=O)c2ccc3c(c2)OCCO3)nc1 | inconclusive: -30.7% [inhibitor]
61 | CCOc1ccc(/C=N/NC(=O)c2cccc3ccccc23)c(OCC)c1 | inactive: -0.792%
62 | COc1cc2ccccc2cc1C(=O)N1CC(C)CC(C)C1 (stereo unspecified) | inconclusive: -38.3% [inhibitor]
63 | Cc1ccccc1Nc1nc(N)c2ccccc2n1 | inconclusive: -38.3% [inhibitor]
64 | O=C(CN1CCN(S(=O)(=O)c2ccc(F)cc2)CC1)Nc1cccc(C(F)(F)F)c1 | inconclusive: -39.5% [inhibitor]
65 | CCCCCCCC(=O)N/N=C/c1ccc([N+](=O)[O-])o1 | active: -88%
66 | O=C(/C=C/c1ccc([N+](=O)[O-])s1)N1CCCCC1 | active: -82%
67 | COc1ccc(S(=O)(=O)NCC2CCCN(Cc3ccccc3C)C2)cc1 (stereo unspecified) | inactive: 4.57%
68 | CCC(=O)C1CCCN(C(=O)CCc2nnc(-c3ccc(C(C)=O)s3)o2)C1 (stereo unspecified) | inactive: -14.3%
69 | CCOc1ccccc1NC(=O)C1CC2CCCC(C1)C2=O (stereo unspecified) | inconclusive: -34% [inhibitor]
70 | COc1ccccc1NC(=S)N/N=C1\CC(C)(C)Oc2ccc(O)cc21 | inactive: 37.9%
71 | CCOc1ccccc1C(=O)Nc1ccc(S(=O)(=O)Nc2nccc(C)n2)cc1 | inconclusive: -40% [inhibitor]
72 | O=[N+]([O-])c1ccccc1S(=O)(=O)Oc1ccccc1/C=N/n1cnnc1 | inconclusive: -68.8% [inhibitor]
73 | O=C(Nc1ccsc1C(=O)O)c1cccc(Oc2ccccc2)c1 | inconclusive: -37.2% [inhibitor]
74 | CCC[C@@H]1CCCO[C@@](C(=O)NCc2ccc(S(C)(=O)=O)cc2)(C(F)(F)F)C1 | inactive: -0.541% and inactive: 0.359%
75 | COc1cc(OC)c(OC)cc1CN(C)CC1CCCN(CCc2ccccc2F)C1 (stereo unspecified) | inconclusive: -32% [inhibitor]
76 | COc1ccc(-c2nnnn2C(C)C)cc1S(=O)(=O)Nc1ccccc1 | inconclusive: -34.4% [inhibitor]
